This passage reports TGI results from PubChem BioAssay (NCI).

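Cells were grown in 96-well plates and exposed to each compound for 48 hours at five concentrations; endpoints were interpolated linearly between bracketing concentrations, or set to the highest concentration if not reached. The concentration for full growth arrest is given as TGI.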 Some entries of the source have several records that differ or are many. This list holds those alone. An entry can have further records. A record mostly stands for its own series of concentrations, not given here; some values may only mark the edge of a range.

What all share (test): NCI anticancer screen, dose series, 48 h
Experiment [1] has as its system SF-268 CNS.
For experiment [2], the system named is SR leukemia.
In experiment [3] the test system is MOLT-4 leukemia.
The test system of experiment [4] is IGROV1 ovarian.
Experiment [5] has as its system CCRF-CEM leukemia.
For experiment [6], the system named is SN12C renal.
The subject of experiment [7] is OVCAR-8 ovarian.
Experiment [8] relates to SNB-19 CNS.

In the case of `COc1cc2cc(C(=O)N3C[C@@H](CCl)c4c3cc(OC(=O)N(CCC(=O)N3CCN(C)CC3)[C@H]3CCSSC3)c3ccccc43)[nH]c2c(OC)c1OC`, the TGI in experiment [1] was 25 µM and 676 nM; in experiment [2], 25 µM and 595 nM; in experiment [3], 25 µM and 2.11 µM; in experiment [4] it was 1.29 µM and 13.1 µM; in experiment [5], 7.22 µM and > 100 µM; in experiment [6], 1.12 µM and 11.4 µM. The TGI in experiment [7] is 737 nM and 10 µM; in experiment [8], 2.96 µM and 37 µM.
